Results: PubChem BioAssay AID504339 (National Center for Advancing Translational Sciences (NCATS), 2011)
Where “and” joins values, the source holds several entries; their conditions need not be identical. Equal values may be shown once. The campaign covered roughly 390,000 compounds. About 17,000 (4.4%) were called active. Inconclusive results, whose numbers are uncertain, are shown with a selection of clear calls. Calls follow the shape of the dose curve; as a rule, active = well fitted inhibition curve with a large enough effect; inconclusive = small, poorly fitted or top-dose-only effect; inactive = no such curve, though single readings can be large or run the other way. Where the call is inconclusive, the potency comes from a doubtful curve fit.
% is scaled to controls: 0 for no effect and ±100 for the full control effect; potency is read from the fitted curve at half-maximal effect; tags tell the direction and shape of the fitted curve.
Also: nearly all actives have a fitted effect of over 50% in size.

The compounds below were run against Lysine-specific demethylase 4A (Homo sapiens) (UniProt O75164) (assay: qHTS Assay for Inhibitors of JMJD2A-Tudor Domain). Conditions: AlphaScreen JMJD2A-Tudor / H3K4me3 peptide binding; activity change, negative = inhibition: at 114 µM (top of the series).
UniProt O75164, sequence (O75164 whole entry, looked up, the tested form may be a part): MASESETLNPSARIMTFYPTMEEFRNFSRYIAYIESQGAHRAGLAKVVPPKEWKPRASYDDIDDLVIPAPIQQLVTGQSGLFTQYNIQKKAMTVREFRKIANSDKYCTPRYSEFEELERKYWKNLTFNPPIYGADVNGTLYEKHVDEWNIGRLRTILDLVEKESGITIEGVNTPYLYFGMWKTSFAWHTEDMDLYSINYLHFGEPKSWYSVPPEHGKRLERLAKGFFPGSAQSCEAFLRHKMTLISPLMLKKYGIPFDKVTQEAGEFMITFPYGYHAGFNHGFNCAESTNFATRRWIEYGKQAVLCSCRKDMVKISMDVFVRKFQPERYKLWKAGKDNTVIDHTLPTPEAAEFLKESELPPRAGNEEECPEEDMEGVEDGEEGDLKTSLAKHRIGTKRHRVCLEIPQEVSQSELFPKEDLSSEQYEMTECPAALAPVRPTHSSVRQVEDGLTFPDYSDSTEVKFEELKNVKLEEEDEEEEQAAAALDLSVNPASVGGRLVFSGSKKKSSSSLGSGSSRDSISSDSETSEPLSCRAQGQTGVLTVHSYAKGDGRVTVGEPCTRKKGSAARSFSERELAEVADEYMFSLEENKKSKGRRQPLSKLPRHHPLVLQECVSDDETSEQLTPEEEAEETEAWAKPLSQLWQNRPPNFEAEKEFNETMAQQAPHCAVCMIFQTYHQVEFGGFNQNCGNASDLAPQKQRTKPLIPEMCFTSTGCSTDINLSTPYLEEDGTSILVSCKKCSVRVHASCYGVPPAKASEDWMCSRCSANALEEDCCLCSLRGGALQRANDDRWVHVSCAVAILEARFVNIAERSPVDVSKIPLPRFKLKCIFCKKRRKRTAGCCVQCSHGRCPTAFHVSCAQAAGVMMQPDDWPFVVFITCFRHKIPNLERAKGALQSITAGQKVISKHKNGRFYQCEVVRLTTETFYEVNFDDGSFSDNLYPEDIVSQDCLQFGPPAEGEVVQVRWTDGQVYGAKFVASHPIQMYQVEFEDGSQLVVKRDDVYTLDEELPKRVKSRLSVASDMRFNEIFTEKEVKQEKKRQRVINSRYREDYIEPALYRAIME
For `CC(C)(C)c1cc(Cl)ccc1OCCn1ccnc1`, the Potency was active: 5.01 µM. In the case of `CC(=O)Nc1ccc(SCC(=O)NNC(=O)CN(C)S(=O)(=O)c2ccc(C)cc2)cc1`, the Potency was “inactive”. `COc1ccc(N2CCN(C(CNC(=O)OCc3ccccc3)c3ccco3)CC2)cc1` (configuration not stated) was tested, and the Potency was active: 39.8 µM. For `Cc1[nH]c(N=Nc2ccccc2)nc1N=Nc1ccccc1`, the Potency was active: 7.94 µM. `COC(=O)C1=C(c2ccccc2)c2ccccc2S(=O)(=O)N1CC(=O)Nc1cccc(C(C)=O)c1` was tested, and the Potency was inconclusive: 56.2 µM [inhibitor, partial curve]. `CCOc1ccc2nc(SC3CC(=O)N(c4ccccc4)C3=O)sc2c1` (configuration not stated) was tested, and the Potency was inconclusive: 89.1 µM [inhibitor, single point]. With `CN(C)c1ccc(/C=N\NC(=O)c2cccc3cc[nH]c23)cc1` the Potency was inconclusive: 56.2 µM [inhibitor, partial curve]. In the case of `COC(=O)c1c(C(=O)OC)c(-c2ccc(C)cc2)n2c1CCC2`, the Potency was inconclusive: 50.1 µM [inhibitor, partial curve]. `CN(C(=S)NC(=O)c1ccc(Cl)cc1)C1CCCCC1` was tested, and the Potency was “inactive”. In the case of `Oc1ccc2ccccc2c1C=Nc1ccc(N2CCOCC2)cc1`, the Potency was active: 50.1 µM. With `C#CCOCCOCCOCCNc1nc(N2CCN(C(=O)CCCCCCCCCCNC(=O)[C@H](CCCCN)n3cc(C[C@@H](C)CC)nn3)CC2)nc(N2CCN(C(=O)CCCCCCCCCCNC(=O)[C@@H]([C@H](C)O)n3cc(C)nn3)CC2)n1` the Potency was active: 56.2 µM. With `COc1cc(/C=N/NC(=O)[C@H](Cc2c[nH]c3ccccc23)NC(=O)OCC(C)C)cc([N+](=O)[O-])c1O` the Potency was inconclusive: 50.1 µM [inhibitor, partial curve]. `O=C(CSc1ncccn1)NC(=O)Nc1ccc2c(c1)OCCO2` was tested, and the Potency was “inactive”. In the case of `Cc1ccc(NC(=O)c2ncn(CC(=O)N[C@H](C)c3cccc4ccccc34)n2)cc1C`, the Potency was “inactive”. With `CC(=O)N(Cc1cc(=O)[nH]c2ccccc12)c1ccc(C)cc1C` the Potency was inconclusive: 14.1 µM [inhibitor, single point]. In the case of `CC(=O)c1ccc(NC(=O)Cn2cnc(S(=O)(=O)N3CCCC3)c2)cc1`, the Potency was “inactive”. In the case of `CCOc1ccc(/C(O)=C2/C(=O)C(=O)N(CC3CCCO3)C2c2ccco2)cc1` (configuration not stated), the Potency was active: 79.4 µM. In the case of `COc1ccc(CN2CCn3ncc(C(=O)Nc4cc(C)cc(C)c4)c3C2=O)cc1`, the Potency was inconclusive: 89.1 µM [inhibitor, single point]. For `CCC(CN(C)C)Oc1cc(NCc2ccccc2)c2ncn(C(C)C)c2c1` (configuration not stated), the Potency was active: 89.1 µM. With `Cn1c2ccccc2c2c(C(=O)N3CCN(c4ccccc4)CC3)cn(C3CCCC3)c(=O)c21` the Potency was inconclusive: 56.2 µM [inhibitor, partial curve]. `Cc1ccc2cc(C#N)c(N3CCCN(C(=O)C4CCCO4)CC3)nc2c1` (configuration not stated) was tested, and the Potency was “inactive”. With `O=C(OCC(=O)c1cccc2ccccc12)c1ccc(CO)cc1` the Potency was “inactive”. `COc1ccccc1CNCC(=O)Nc1ccc(N2CCOCC2)cc1` was tested, and the Potency was active: 39.8 µM. `Cc1ccc(O)c(N=Cc2ccc(C)s2)c1` was tested, and the Potency was “inactive”. `O=C(Nc1ccccc1N1CCCC1)c1ccc(Br)o1` was tested, and the Potency was inconclusive: 56.2 µM [inhibitor, partial curve]. `COc1ccc(C(=O)/C=C/c2ccccc2)c(O)c1` was tested, and the Potency was inconclusive: 56.2 µM [inhibitor, partial curve]. `O=C(COc1ncnc2sccc12)N1CCN(C(=O)c2ccco2)CC1` was tested, and the Potency was inconclusive: 17.8 µM [inhibitor, partial curve]. For `CCNC(=S)Nc1cc2oc3ccccc3c2cc1OC`, the Potency was inconclusive: 79.4 µM [inhibitor, partial curve]. With `COc1ccccc1CNc1ccc2c(c1)CCC2` the Potency was inconclusive: 56.2 µM [inhibitor, partial curve]. For `Cc1cc(C)c(/C([O-])=C(/C(=S)Nc2ccc(SC(F)F)cc2)[n+]2ccccc2)cc1C`, the Potency was inconclusive: 50.1 µM [inhibitor, partial curve]. In the case of `Cc1ccc(/C(O)=C2\C(=O)C(=O)N(CCc3c[nH]c4ccccc34)C2c2cccnc2)cc1` (configuration not stated), the Potency was inconclusive: 89.1 µM [inhibitor, partial curve]. `COC(=O)c1ccc(CSC2=NC[C@@H]3[C@@H]4C(=O)N(C)C(=O)[C@@H]4[C@](C)(C(=O)OC)N23)cc1` was tested, and the Potency was “inactive”. In the case of `CCCCNC(=O)CCCCn1c(=S)[nH]c2c([nH]c3ccc(OC)cc32)c1=O`, the Potency was inconclusive: 44.7 µM [inhibitor, partial curve]. In the case of `CCOCCCNC(=O)c1ccc2nc(CCc3ccccc3)oc2c1`, the Potency was “inactive”. For `CCN(c1ccccc1)S(=O)(=O)c1ccc(OC)c(NC(=O)c2ccccc2OC)c1`, the Potency was “inactive”. `COc1cccc(-n2c(SCC(=O)Nc3cc(C)ccc3C)nc3c(oc4ccccc43)c2=O)c1` was tested, and the Potency was “inactive”. In the case of `Cc1ccc([N+](=O)[O-])cc1S(=O)(=O)N1CCNCC1`, the activity change, negative = inhibition was inactive: -21.8% [at 11.4 µM]. `CCOC(=O)C(C)Sc1nnc(Cn2c(=O)sc3ccccc32)n1-c1ccccc1` (configuration not stated) was tested, and the Potency was “inactive”. In the case of `CN(C)S(=O)(=O)c1cccc(NC(=S)N/N=C/C(=O)c2ccccc2)c1`, the Potency was inconclusive: 5.62 µM [inhibitor, partial curve]. For `COc1ccc(-c2nn3c(-c4ccccn4)nnc3s2)cc1OC`, the Potency was inconclusive: 20 µM [inhibitor, single point]. For `COc1cc(OC)c(OC)cc1CN1CCN(C(=O)CC(C)C)CC1`, the Potency was active: 1.58 µM. For `N=c1c2c(-c3ccccc3)c(-c3ccccc3)n(Cc3ccco3)c2ncn1CCCO`, the Potency was inconclusive: 39.8 µM [inhibitor, partial curve]. `Nc1nonc1-n1nnc(C(=O)N/N=C/c2ccccc2O)c1CN1CCCC1` was tested, and the Potency was inconclusive: 89.1 µM [inhibitor, single point]. `O=C1C2CCCN2C(c2ccccc2)N1c1nccs1` (configuration not stated) was tested, and the Potency was inconclusive: 22.4 µM [inhibitor, full curve, poor fit]. For `c1ccc(CNc2nc(N3CCN(Cc4ccccc4)CC3)nc3ccccc23)cc1`, the Potency was “inactive”. In the case of `O=C(/C=C/c1ccc(Cl)cc1Cl)Nc1cccc(S(=O)(=O)NC2=NCCC2)c1`, the Potency was inconclusive: 20 µM [inhibitor, full curve]. `Cc1noc(C)c1C(=O)Nc1cc(S(=O)(=O)N2CCCCC2)ccc1N(C)C` was tested, and the Potency was “inactive”. `C/C=C(/C)C(=O)Nc1cccc(C2=NOC3(C2)C[C@@H](C(N)=O)N(C(=O)C2(C)CC2)C3)c1` (some centres not stated) was tested, and the Potency was “inactive”. `CCC(=O)NC(c1cccs1)c1ccc2cccnc2c1O` (configuration not stated) was tested, and the Potency was active: 56.2 µM and active: 79.4 µM. With `O=C(Cc1ccccc1)Nc1ccc(N2CCCC2)cc1` the Potency was inconclusive: 79.4 µM [inhibitor, single point]. `O=C(Oc1cccc([N+](=O)[O-])c1)c1ccc2c(=O)n3c(nc2c1)CCC3` was tested, and the Potency was inconclusive: 56.2 µM [inhibitor, partial curve]. `COc1cccc(N2CCN(C(=O)c3ccc4ccccc4c3)CC2)c1` was tested, and the activity change, negative = inhibition was inconclusive: -40% [inhibitor]. With `CC(NC(=O)Cc1ccc(S(=O)(=O)N2CCOCC2)s1)c1ccc(Cl)cc1Cl` (configuration not stated) the Potency was “inactive”. `Cn1c(-c2ccccc2)n[nH]c1=S` was tested, and the Potency was active: 22.4 µM. `CN(C)C=NC(=O)c1[nH]c2ccc(Cl)cc2c1-c1ccccc1` was tested, and the Potency was “inactive”. `O=C(NCc1ccccn1)c1cc(-c2ccncc2)nc2ccccc12` was tested, and the Potency was inconclusive: 89.1 µM [inhibitor, single point]. For `O=C(NCc1ccccn1)C1(C(F)(F)F)CC(CCCO)CCCO1` (configuration not stated), the Potency was “inactive”. For `Cc1ccc(NS(=O)(=O)c2cc(C(=O)Nc3cccnc3)ccc2C)cc1`, the Potency was inconclusive: 31.6 µM [inhibitor, partial curve]. With `COc1ccc(OC)c(CN2CCC(N3CCC(C(=O)NC4CC4)CC3)CC2)c1` the Potency was “inactive”. For `Cc1ccccc1S(=O)(=O)Cc1ccc(C(=O)NCc2ccccc2)o1`, the Potency was “inactive”. With `COc1ccc(-n2nnnc2CNC(=O)c2ccc(S(=O)(=O)N3CCOCC3)cc2)cc1` the Potency was “inactive”. In the case of `CCN1C(=O)[C@@H]2[C@@H](c3ccc(-c4ccc(Cl)c(Cl)c4)c(OC)c3)N3CCC[C@@]3(C(=O)OC)[C@@H]2C1=O`, the Potency was inconclusive: 44.7 µM [inhibitor, partial curve]. In the case of `O=c1/c(=C\c2ccc3c(c2)OCO3)sc2n1CCCN=2`, the Potency was “inactive”. `CCOC(=O)c1ccc(-n2c(CCC(=O)O)ccc2-c2cccs2)cc1` was tested, and the Potency was inconclusive: 17.8 µM [inhibitor, partial curve]. With `CC1CC=CC2C1C(=O)N(Cc1ccccc1)C2c1ccc2ccccc2c1-c1ccc(N(C)C)cc1` (configuration not stated) the Potency was inconclusive: 8.91 µM [inhibitor, full curve]. With `O=C1NC(c2ccccc2)=C(c2ccc3ccccc3n2)C(c2ccc(F)cc2)N1` (configuration not stated) the Potency was inconclusive: 44.7 µM [inhibitor, partial curve]. With `O=C(Nc1ccc2ncccc2c1)c1ccccc1` the Potency was active: 22.4 µM. In the case of `CCOc1cc(N2CCOCC2)c(OCC)cc1NC(=O)CN1CCCC1`, the Potency was inconclusive: 89.1 µM [inhibitor, single point]. With `Cc1ccc(C)c(N2CCN(C(=O)c3ccc4c(c3)c(C)c(C)n4C)CC2)c1` the Potency was active: 35.5 µM and active: 44.7 µM. In the case of `COc1ccc2sc(NC(=O)c3ccco3)nc2c1`, the Potency was inconclusive: 89.1 µM [inhibitor, single point]. For `Cc1ccc(C2CC(=O)Nc3c2ccc2ccccc32)cc1[N+](=O)[O-]` (configuration not stated), the Potency was inconclusive: 22.4 µM [inhibitor, full curve]. With `CCOC(=O)c1ccc(-n2cnc3c(c2=N)C(c2cccc(OC)c2)c2c(ccc4ccccc24)O3)cc1` (configuration not stated) the Potency was inconclusive: 35.5 µM [inhibitor, partial curve].
